Experimental data as given in the supplement of paper PMC6089552.
“And” between values parts separate entries of the source, which are not always exact repeats. Equal entries are not always repeated. In all, about 3,200 compounds went through this assay and about 300 (9.4%) showed activity. The entries are a selection whose mix differs from that of the whole data set.

Test system: A673/TR/shEF
Test: cell viability (LOESS-normalised, relative to median of negative controls) (log2 ratio); higher = more viable cells (less compound effect), active = hit call of the paper (over 3 MAD below the median)
Settings: treatment time: 72 h
Summary of the method: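 Doxycycline, present or absent from 24 h before compounds, was used to induce EWS-FLI1 shRNA knockdown in A673/TR/shEF Ewing sarcoma cells at 1,500 per well in 384-well plates. Cells then received library compounds at two or more concentrations, or DMSO controls, for three days. Viability was measured by CellTiter-Glo luminescence on an Envision reader, and per-plate LOESS correction, division by the negative-control median and log2 transformation followed.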

[1] = 0.25 µM, library screen: screen2, EWS-FLI1 expression: high (no doxycycline)
[2] = 0.25 µM, library screen: screen2, EWS-FLI1 expression: low (doxycycline-induced shRNA knockdown)
[3] = 2.5 µM, library screen: screen2, EWS-FLI1 expression: high (no doxycycline)
[4] = 2.5 µM, library screen: screen2, EWS-FLI1 expression: low (doxycycline-induced shRNA knockdown)
[5] = 0.25 µM, library screen: screen1, EWS-FLI1 expression: high (no doxycycline)
[6] = 0.25 µM, library screen: screen1, EWS-FLI1 expression: low (doxycycline-induced shRNA knockdown)
[7] = 2.5 µM, library screen: screen1, EWS-FLI1 expression: high (no doxycycline)
[8] = 2.5 µM, library screen: screen1, EWS-FLI1 expression: low (doxycycline-induced shRNA knockdown)
[9] = 0.025 µM, library screen: screen1, EWS-FLI1 expression: high (no doxycycline)
[10] = 0.025 µM, library screen: screen1, EWS-FLI1 expression: low (doxycycline-induced shRNA knockdown)
[11] = 25 µM, library screen: screen1, EWS-FLI1 expression: high (no doxycycline)
[12] = 25 µM, library screen: screen1, EWS-FLI1 expression: low (doxycycline-induced shRNA knockdown)

Measured: cell viability (log2)

c1ccc2c(c1)[I+]c1ccccc1-2
active: [1] -1.37 | [2] -0.118 | [3] -1.4 | [4] -0.388

O=[N+]([O-])c1cc([As](=O)(O)O)ccc1O
inactive: [5] 0.0332 | [6] 0.0388 | [7] 0.152 | [8] 0.13

c1cncc(C2=NCCC2)c1
inactive: [5] 0.0511 | [6] -0.0382 | [7] 0.133 | [8] 0.104

CCOP(=S)(OCC)SCCSCC
inactive: [5] -0.0493 | [6] 0.0698 | [7] 0.0164 | [8] 0.0401

COc1cc2c3cc1Oc1cc(ccc1O)C[C@H]1c4c(cc(OC)c(O)c4Oc4ccc(cc4)C[C@@H]3N(C)CC2)CCN1C
inactive: [5] 0.0853 | [6] 0.0939 | [7] 0.083 | [8] 0.276

N#CC(C#N)=Cc1ccc(O)cc1
inactive: [9] 0.0481 | [10] 0.0237 | [5] 0.0596 | [6] 0.0262 | [7] 0.0426 | [8] 0.0755 | [11] 0.0734 | [12] 0.0191

CC1(C)C(C=C(Cl)Cl)C1C(=O)OC(C#N)c1cccc(Oc2ccccc2)c1 (stereo unspecified)
inactive: [9] 0.0827 | [10] 0.0478 | [5] 0.102 | [6] -0.0402 | [7] 0.0354 | [8] -0.0899
active: [11] -0.287 | [12] -0.665

CO[C@@H]1C[C@@H](C[C@H]2CC[C@H](C)[C@H]([C@@H](C)C(=O)O)O2)O[C@]2(O[C@](C)([C@H]3CC[C@@](C)([C@@H]4O[C@@H]([C@H]5O[C@@](O)(CO)[C@H](C)C[C@@H]5C)C[C@@H]4C)O3)C[C@H]2C)[C@@H]1C
active: [7] -0.685

CC(C)(C)c1o[nH]c(=O)c1CC(N)C(=O)O (stereo unspecified)
inactive: [1] 0.0947 | [2] 0.0371 | [3] 0.104 | [4] 0.0294

O=C1CCCN1CC#CCN1CCCC1
inactive: [5] 0.118 | [6] 0.083 | [1] 0.183 | [2] 0.101 | [7] 0.114 | [8] 0.0585 | [3] 0.0464 | [4] 0.0329

CCCN1CCCC2Cc3[nH]ncc3CC21 (stereo unspecified)
inactive: [1] 0.135 | [2] 0.086 | [3] 0.231 | [4] 0.107

C[C@]12N[C@H](Cc3ccccc31)c1ccccc12
inactive: [1] 0.203 | [2] 0.0953 | [3] 0.197 | [4] 0.0712

NC(Cc1cc(O)c(O)cc1O)C(=O)O (stereo unspecified)
inactive: [1] 0.0775 | [2] 0.133 | [3] 0.0832 | [4] 0.2

COc1ccc(CCN2CCC(Nc3nc4ccccc4n3Cc3ccc(F)cc3)CC2)cc1
inactive: [5] 0.062 | [6] 0.123 | [7] 0.0926 | [8] 0.0206

O=C1C=C2C(=CCOC2O)O1 (stereo unspecified)
inactive: [6] 0.05
active: [5] -0.259 | [7] -2.95 | [8] -0.992

C[C@@H]1CC[C@@]2(OC1)O[C@H]1[C@@H](O)[C@H]3[C@@H]4CC[C@H]5C[C@@H](O[C@@H]6O[C@H](CO)[C@H](O[C@@H]7O[C@H](CO)C(O)[C@H](O[C@@H]8OC[C@@H](O)[C@H](O)[C@H]8O)[C@H]7O[C@@H]7O[C@H](CO)[C@H](O)[C@H](O[C@@H]8O[C@H](CO)[C@@H](O)[C@H](O)[C@H]8O)[C@H]7O)[C@H](O)[C@H]6O)[C@H](O)C[C@]5(C)[C@H]4CC[C@]3(C)[C@H]1[C@@H]2C (stereo partly specified)
inactive: [5] 0.0473 | [6] 0.00355 | [7] 0.099 | [8] 0.184

N[C@H](CCCCCP(=O)(O)O)C(=O)O
inactive: [1] 0.17 | [2] 0.167 | [3] 0.11 | [4] 0.0282

CN1C2C[C@H](OC(=O)[C@H](CO)c3ccccc3)CC1[C@@H](O)C2 (stereo partly specified)
inactive: [5] 0.0376 | [6] 0.0137 | [7] 0.116 | [8] 0.0715

CC(=O)O[C@@H]1C2CC[C@@H]3C1(C[C@@H](O)[C@@]1(O)[C@@H](C[C@H](O)C1(C)C)[C@]3(C)O)C[C@@]2(C)O (stereo partly specified)
inactive: [5] 0.0646 | [6] 0.00107 | [7] 0.0644 | [8] 0.0594

CC(N)Cc1c[nH]c2ccc(O)cc12 (stereo unspecified)
inactive: [1] 0.112 | [2] 0.067 | [3] 0.123 | [4] 0.0164

CCC(N)C(O)c1ccc(O)c(O)c1 (stereo unspecified)
inactive: [5] 0.161 | [6] 0.0223 | [7] 0.0883 | [8] 0.0282

CCCN(CCC)C1CCc2ccc(O)cc2C1 (stereo unspecified)
inactive: [1] 0.0963 and 0.19 | [2] -0.0245 and 0.098 | [3] 0.141 and 0.0955 | [4] 0.0152 and 0.0367

OCC(O)Cc1ccc2c(c1)OCO2 (stereo unspecified)
inactive: [5] 0.0615 | [6] 0.039 | [7] 0.0501 | [8] 0.111
